# Measured values taken from paper PMC4336329 (PLoS ONE, 2015).
# In all, about 310,000 compounds went through this assay and about 2,200 (0.71%) showed an effect of 50% or more. Effects have a minus sign here. This is one part of the list.
# Molecular target: human ether-à-go-go-related gene (hERG) potassium channel (human, UniProt Q12809)
# Test: primary screen, population patch clamp on CHO cells stably expressing hERG
# Chain of human ether-à-go-go-related gene (hERG) potassium channel (Q12809 whole entry, looked up): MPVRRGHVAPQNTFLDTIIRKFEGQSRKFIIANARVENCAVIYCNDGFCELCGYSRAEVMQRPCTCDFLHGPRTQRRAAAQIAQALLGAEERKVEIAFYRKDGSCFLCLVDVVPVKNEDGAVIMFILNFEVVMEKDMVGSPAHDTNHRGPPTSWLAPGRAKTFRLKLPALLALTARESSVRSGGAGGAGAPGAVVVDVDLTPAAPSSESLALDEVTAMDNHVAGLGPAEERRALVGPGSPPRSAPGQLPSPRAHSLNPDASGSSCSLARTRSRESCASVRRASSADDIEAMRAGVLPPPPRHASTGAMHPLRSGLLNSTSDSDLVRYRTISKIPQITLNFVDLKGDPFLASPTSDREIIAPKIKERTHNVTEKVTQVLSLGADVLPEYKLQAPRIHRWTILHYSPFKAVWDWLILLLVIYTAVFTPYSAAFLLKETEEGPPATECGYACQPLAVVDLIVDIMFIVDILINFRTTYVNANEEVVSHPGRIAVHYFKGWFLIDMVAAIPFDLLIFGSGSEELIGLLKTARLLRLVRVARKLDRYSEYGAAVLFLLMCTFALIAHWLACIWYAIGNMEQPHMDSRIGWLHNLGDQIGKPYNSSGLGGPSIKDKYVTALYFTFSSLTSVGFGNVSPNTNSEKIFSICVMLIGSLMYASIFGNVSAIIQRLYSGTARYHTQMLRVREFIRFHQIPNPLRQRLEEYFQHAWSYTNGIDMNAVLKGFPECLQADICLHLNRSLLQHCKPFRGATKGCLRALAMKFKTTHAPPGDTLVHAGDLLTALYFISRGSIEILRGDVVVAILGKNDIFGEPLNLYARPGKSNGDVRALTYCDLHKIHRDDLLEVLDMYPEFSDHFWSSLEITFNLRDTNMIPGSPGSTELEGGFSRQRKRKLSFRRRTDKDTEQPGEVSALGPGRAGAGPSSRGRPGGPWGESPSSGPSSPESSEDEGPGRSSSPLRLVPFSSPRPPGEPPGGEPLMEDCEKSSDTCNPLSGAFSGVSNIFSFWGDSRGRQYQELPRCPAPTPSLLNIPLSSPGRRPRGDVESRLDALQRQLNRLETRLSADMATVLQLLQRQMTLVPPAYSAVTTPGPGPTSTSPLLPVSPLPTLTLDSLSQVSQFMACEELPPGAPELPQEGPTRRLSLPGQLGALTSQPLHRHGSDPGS
row,SMILES,"hERG current change (%, negative = inhibition) at 1uM [%]"
1,C=C1CCC[C@]2(C)C[C@H]3OC(=O)C(CNC(C)(CO)CO)[C@H]3CC12 (stereo partly drawn),10.2
2,O=C(c1ccccc1)c1ccc(N2CCCC2)cc1,-0.0505
3,C#CCNc1nc(C)nc2c1nnn2Cc1ccccc1F,9.4
4,COC(=O)C1=C(C)N=C2SC(C)C(=O)N2C1c1ccc(C(=O)OC)cc1 (stereo not drawn),11.5
5,Cn1ncc(C#N)c1NC(=O)C1CC(c2ccc(Cl)c(Cl)c2)=NO1 (stereo not drawn),5.83
6,O=S(=O)(NCC(c1ccc2c(c1)OCO2)N1CCOCC1)c1ccccc1 (stereo not drawn),5.68
7,O=C(COc1ccc(Cl)cc1)NCCCNC(=O)c1cccnc1,26.4
8,COc1ccc(Cl)cc1NC(=O)c1cc(-c2ccco2)on1,13
9,COc1ccc(-c2ccc(=O)n(CC(=O)Nc3nnc(C(C)C)s3)n2)cc1OC,8.77
10,COC(=O)CCCCCCCCC(O)C[N+]1(C)CCOCC1.[I-] (stereo not drawn),11.3
11,CCCCSc1nc2c(c(=O)[nH]1)CCC2,13.3
12,COc1cccc2cc(C(=O)n3ccc(C)n3)c(=O)oc12,10.3
13,O=C(O)CSc1nnc(-c2ccc(Cl)cc2Cl)n1-c1ccc(Br)cc1,4.92
14,COc1cc(OC)cc(C(=O)O/N=C(\N)c2ccccn2)c1,11.5
15,CC(C)(C)OC(=O)NN1CC(=O)N2Cc3ccccc3C[C@@H]2C1=O,15
16,Cc1cc(C)n(CCC(=O)N=Nc2c(O)[nH]c3ccc(Br)cc23)n1,9.71
17,Cc1nc2ccc(S(=O)(=O)N(C)CC(=O)NC(C)c3ccccc3)cc2s1 (stereo not drawn),14.3
18,CCCOc1ccc(/C=C/C(=O)NCc2ccccc2)cc1,2.18
19,CCc1nc2ccc(C(=O)N3CCN(c4cccc(C)c4C)CC3)cc2nc1CC,13
20,CCNC(=O)CNC(=O)c1nn(Cc2ccccc2)c(=O)c2ccccc12,9.51
21,CN(C)S(=O)(=O)c1ccc(C(=O)NCCS(=O)(=O)N2CCN(c3ccc(F)cc3)CC2)cc1,12.4
22,Cc1ccc(-n2c(C)cc(/C=c3/sc4nc5ccccc5n4c3=O)c2C)cc1,9.79

row,SMILES,"hERG current change (%, negative = inhibition) at 1uM [%]"
1,CC(C)c1ccc(OCc2ccc(C(=O)N(C)C)o2)cc1,9.46
2,C=CCSc1nc(C)c(CC(=O)OCCCC)c(=O)[nH]1,10.8
3,COCCn1c(SCC(=O)NC(=O)NC(C)(C)C)nc2ccccc21,-7.15
4,CCN(CC)c1ccc(C2C(C(C)=O)C(=O)CC(C)(O)C2C(C)=O)cc1 (stereo not drawn),-8.92
5,O=C(COC(=O)c1ccc(F)c(S(=O)(=O)N2CCOCC2)c1)NCc1ccco1,8.06
6,O=C1/C(=C/c2ccncc2)CCc2ccccc21,4.3
7,Cc1ccc(C)c(OCC(O)CN2CCC(C)CC2)c1C (stereo not drawn),0.216
8,O=C(COC(=O)c1cc2c(s1)CCCC2)Nc1ccc(Cl)cn1,2.34
9,CCc1nn2c(N3CCOCC3)cc(C)nc2c1-c1ccccc1,10.2
10,CC(=O)Nc1ccc(S(=O)(=O)Nc2cccc(-c3ccc4nncn4n3)c2)cc1,6.09
11,O=C(Nc1ccc2c(c1)OCO2)C1CCCN1C(=O)NCc1ccccc1 (stereo not drawn),9.42
12,O=S(=O)(Nc1cc2nc3ccccc3nc2n1Cc1ccccc1)c1ccc(Cl)cc1,16.1
13,Cc1cccc(NC(=O)CN2C(=O)S/C(=C\c3ccccn3)C2=O)c1,9.73
14,CCCOc1ccc(C2C(C(=O)/C=C/c3ccco3)=C(O)C(=O)N2CCN2CCOCC2)cc1OC (stereo not drawn),7.02
15,CCOc1ccc(C(=O)NCC(=O)OCC(=O)c2ccc3c(c2)-c2ccccc2C3)cc1,24.3
16,Cc1ccc(OCC(=O)O/N=C(\N)Cc2ccc(Cl)cc2)cc1,10.7
17,Cc1cccc2sc(NC(=O)c3ccc(OCC4CCCO4)cc3)nc12 (stereo not drawn),14.7
18,O=c1c2ccccc2sc2ccc(NCCCN3CCOCC3)cc12,6.03
19,CCCOC(=O)Nc1sc2c(c1C(N)=O)CCCC2,17.7
20,CCOC(=O)/C(N=Nc1c(C)n(C)n(-c2ccccc2)c1=O)=C(\C)O,5.02
21,COc1ccc(Cl)cc1NS(=O)(=O)c1cccc(C(=O)NCC2(N(C)C)CCCCC2)c1,3.91
22,COc1ccc(OC)c(/C=N/NC(=O)c2cc3c(OC)cc(OC)cc3[nH]2)c1,22.5

row,SMILES,"hERG current change (%, negative = inhibition) at 1uM [%]"
1,COc1ccc(C(=O)N2CC(=O)Nc3ccc(F)cc3C2c2ccccc2)cc1 (stereo not drawn),7.28
2,Cc1ccc(NC(=O)C2CCN(S(=O)(=O)c3ccc4c(c3)OCCO4)CC2)nc1,8.86
3,CCCOC(=O)c1cccc(NC(=O)c2cccnc2)c1,-7.06
4,CCCCC1(C(=O)OCC)CC(CN2CCOCC2)OC1=O (stereo not drawn),2.84
5,CCn1c(COc2ccc(=O)n(-c3ccccc3)n2)nnc1SCc1ccccc1C,-43.9
6,CCS(=O)(=O)c1ccc2oc(Nc3cc(Cl)ccc3OC)nc2c1,7.99
7,O=C(COC(=O)CCc1c[nH]c2ccccc12)NC1CCS(=O)(=O)C1 (stereo not drawn),11.7
8,O=C(CSc1nc2cc(Cl)ccc2s1)NC1CCCc2ccccc21 (stereo not drawn),3.95
9,CCCCNC(=O)c1ccccc1NC(=O)c1ccc2c(c1)OCO2,12.6
10,CCOC(=O)COc1ccc2c(c1)c(C(=O)OCC)c(C)n2CC,1.5
11,NC(=O)c1ccc[n+](CC(=O)c2ccc(NC(=O)c3ccccc3)cc2)c1.[Br-],13.8
12,O=C(Nc1ccc2c(c1)OCO2)C(c1ccccc1)N1CCN(C(=O)c2ccco2)CC1 (stereo not drawn),5.53
13,O=C(C[N+]12CC[N+](CC(=O)c3ccc(F)cc3)(CC1)CC2)c1ccc(F)cc1.[Cl-],16
14,Cc1cccc(C)c1NC(=S)NN1CCN(C)CC1,11.2
15,COc1ccc(OC)c(NC(=O)CSc2ncccn2)c1,10.8
16,CCCCN(C(=O)NC(=O)C1=C(N2CCOCC2)/C(=C/c2ccccc2)CC1)S(C)(=O)=O,6.19
17,CCC(c1nnc(SCC(=O)Nc2ccc(C(=O)Nc3ccccc3OC)cc2)o1)N(C)C (stereo not drawn),8.32
18,O=C(COc1ccccc1[N+](=O)[O-])Nc1ccccc1N1CCCCC1,-2.02
19,[2H]c1c([2H])c([2H])c(-c2nc(N3CCCCCC3)sc2C(=O)c2ccccc2)c([2H])c1[2H],17.4
20,CCS(=O)(=O)N1CCN(CC(=O)NC2CCCCC2)CC1.Cl,15.7
21,COc1ccc(S(=O)(=O)N2CCC(C(=O)NCCC(=O)NCc3ccncc3)CC2)cc1,6.8
22,COc1ccc(/C=N/OCC(=O)N=Nc2c(O)[nH]c3ccc(Br)cc23)cc1OC,2.83

row,SMILES,"hERG current change (%, negative = inhibition) at 1uM [%]"
1,CCN(CC)S(=O)(=O)c1ccc2[nH]cc(C(=O)NCCCN3CCCCC3C)c(=O)c2c1 (stereo not drawn),3.88
2,COCC(=O)Nc1ccccc1NC(C)=O,-6.55
3,O=C(/C=C/c1ccco1)N1CCN(c2ccc(F)cc2)CC1,4.13
4,Cc1ccc(C(=O)N/C(=C\c2cn(C)c3ccccc23)C(=O)N2CCN(C)CC2)cc1,7.94
5,Cc1cc(OCC(=O)NC2CCN(C)CC2)ccc1[N+](=O)[O-],10.8
6,COc1cccc(CNC(=O)c2cc3oc4ccccc4c3n2C)c1OC,12.8
7,CCc1cccc(OCC(=O)Nc2ccc(S(=O)(=O)Nc3ccccn3)cc2)c1,6.86
8,CCN(CC)C(=O)c1ccc(-c2nnc(OC)c3ccccc23)cc1,-1.67
9,COc1cccc(-n2c(=O)c3c(C)c(C(=O)N(C)C)sc3n(CC(=O)NCC3CCCO3)c2=O)c1 (stereo not drawn),7.29
10,Cc1ccc(N=Cc2sc(O)c3ccccc23)cc1,17.2
11,O=c1c2cc3c(cc2[nH]c(=S)n1CCN1CCOCC1)OCO3,4.6
12,Cc1ccsc1/C=N/n1cnc2sc(C)c(C)c2c1=O,1.24
13,COc1ccc(N2C(=O)c3ccc(C(=O)Nc4ccc(NC(C)=O)cc4)cc3C2=O)cc1,1.58
14,CC1CCN(C(=S)Nc2cccc(S(=O)(=O)N(C)C)c2)CC1,18.2
15,CCC(=O)N1CCN(c2ccc(NC(=O)c3ccc4c(c3)OCO4)cc2)CC1,7.92
16,CN(CC(=O)Nc1ccccc1N1CCOCC1)S(=O)(=O)c1ccc(Cl)cc1,10.1
17,COc1ccc(NC(=S)N2CCc3ccccc3C2)cc1,1.69
18,Cc1ccccc1NC(=O)Cn1nc(C(F)(F)F)cc1C1CC1,5.56
19,Cc1ccc(C)c(S(=O)(=O)N2CCN(C(=O)Cn3c(C(F)(F)F)nc4ccccc43)CC2)c1,3.57
20,COc1cccc2cc(-c3ccccc3)oc12,14.3
21,COc1cccc(N2CCN(C(c3ccccn3)c3nnnn3C(C)(C)C)CC2)c1 (stereo not drawn),14
